Experimental data reported in PMC9911399, “Two distinct binding modes provide the RNA-binding protein RbFox with extraordinary sequence specificity”.
Changes are numbered by the printed parent chain; changes in the protein carry UniProt numbers. The list shows a part of the results.

T1: RBFOX1 RRM (Homo sapiens, UniProt Q9NWB1 109-208)
T1 sequence: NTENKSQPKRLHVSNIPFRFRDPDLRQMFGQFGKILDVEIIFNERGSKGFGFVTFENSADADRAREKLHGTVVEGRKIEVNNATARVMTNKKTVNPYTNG

B1: AGGCUGU (DNA:RNA)
RNA: GGGAGACCGGAAUUCAGAUUGUCCAGGCUGUUUAAAUCCCGUCGUAGCCACCA
DNA 1: CAATCTGAATTCCGGTCTCCC
DNA 2: TGGTGGCTACGACGGGATT
B2: GCGAUCG (DNA:RNA)
RNA: B1 RNA with A25G, G26C, C28A, G30C, U31G
DNA 1: CAATCTGAATTCCGGTCTCCC
DNA 2: TGGTGGCTACGACGGGATT
B3: ACGCAAG (DNA:RNA)
RNA: B1 RNA with G26C, U29A, G30A, U31G
DNA 1: CAATCTGAATTCCGGTCTCCC
DNA 2: TGGTGGCTACGACGGGATT
B4: CGCUUGC (DNA:RNA)
RNA: B1 RNA with A25C, G27C, C28U, U31C
DNA 1: CAATCTGAATTCCGGTCTCCC
DNA 2: TGGTGGCTACGACGGGATT
B5: UUGAUGG (DNA:RNA)
RNA: B1 RNA with A25U, G26U, C28A, U31G
DNA 1: CAATCTGAATTCCGGTCTCCC
DNA 2: TGGTGGCTACGACGGGATT
B6: AAACAUC (DNA:RNA)
RNA: B1 RNA with G26A, G27A, U29A, G30U, U31C
DNA 1: CAATCTGAATTCCGGTCTCCC
DNA 2: TGGTGGCTACGACGGGATT
B7: UUACCUG (DNA:RNA)
RNA: B1 RNA with A25U, G26U, G27A, U29C, G30U, U31G
DNA 1: CAATCTGAATTCCGGTCTCCC
DNA 2: TGGTGGCTACGACGGGATT
B8: GAUAUUA (DNA:RNA)
RNA: B1 RNA with A25G, G26A, G27U, C28A, G30U, U31A
DNA 1: CAATCTGAATTCCGGTCTCCC
DNA 2: TGGTGGCTACGACGGGATT
B9: UUCUUGU (DNA:RNA)
RNA: B1 RNA with A25U, G26U, G27C, C28U
DNA 1: CAATCTGAATTCCGGTCTCCC
DNA 2: TGGTGGCTACGACGGGATT
B10: GCGCGAU (DNA:RNA)
RNA: B1 RNA with A25G, G26C, U29G, G30A
DNA 1: CAATCTGAATTCCGGTCTCCC
DNA 2: TGGTGGCTACGACGGGATT
B11: AUGAAAA (DNA:RNA)
RNA: B1 RNA with G26U, C28A, U29A, G30A, U31A
DNA 1: CAATCTGAATTCCGGTCTCCC
DNA 2: TGGTGGCTACGACGGGATT
B12: ACGAAUG (DNA:RNA)
RNA: B1 RNA with G26C, C28A, U29A, G30U, U31G
DNA 1: CAATCTGAATTCCGGTCTCCC
DNA 2: TGGTGGCTACGACGGGATT
B13: ACUCUUA (DNA:RNA)
RNA: B1 RNA with G26C, G27U, G30U, U31A
DNA 1: CAATCTGAATTCCGGTCTCCC
DNA 2: TGGTGGCTACGACGGGATT
B14: GUAUCCG (DNA:RNA)
RNA: GGGAGACCGGAAUUCAGAUUGUCCGUAUCCGUUAAAUCCCGUCGUAGCCACCA
DNA 1: CAATCTGAATTCCGGTCTCCC
DNA 2: TGGTGGCTACGACGGGATT
B15: GAUGCUA (DNA:RNA)
RNA: B14 RNA with U26A, A27U, U28G, C30U, G31A
DNA 1: CAATCTGAATTCCGGTCTCCC
DNA 2: TGGTGGCTACGACGGGATT
B16: AGACGCA (DNA:RNA)
RNA: B1 RNA with G27A, U29G, G30C, U31A
DNA 1: CAATCTGAATTCCGGTCTCCC
DNA 2: TGGTGGCTACGACGGGATT
B17: CAACUAA (DNA:RNA)
RNA: B1 RNA with A25C, G26A, G27A, G30A, U31A
DNA 1: CAATCTGAATTCCGGTCTCCC
DNA 2: TGGTGGCTACGACGGGATT
B18: UAGCAUG (DNA:RNA)
RNA: B1 RNA with A25U, G26A, U29A, G30U, U31G
DNA 1: CAATCTGAATTCCGGTCTCCC
DNA 2: TGGTGGCTACGACGGGATT
B19: AGAGCAU (DNA:RNA)
RNA: B1 RNA with G27A, C28G, U29C, G30A
DNA 1: CAATCTGAATTCCGGTCTCCC
DNA 2: TGGTGGCTACGACGGGATT
B20: ACCGGCC (DNA:RNA)
RNA: B1 RNA with G26C, G27C, C28G, U29G, G30C, U31C
DNA 1: CAATCTGAATTCCGGTCTCCC
DNA 2: TGGTGGCTACGACGGGATT

The binders below were run against T1, RBFOX1 RRM (assay: EMSA; HiTS-Eq, 1 nM pool, 10 min; buffer printed only for the single-RNA assays: 10 mM Tris pH 7.5, 150 mM NaCl, 3.4 mM EDTA, 0.001% NP-40, 30 C). Conditions: tags: His6 N-terminal (pET28a); label: 5' 32P.
Summary of the method: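 Purified wild-type or mutant RbFox RRM at increasing concentrations was equilibrated with 1 nM of 5′-radiolabelled RNA carrying 7 randomized nucleotides for 10 min in 50 µL. Unbound RNA was separated by 8% native PAGE and sequenced. Relative association constants came from read-count changes of each RNA species compared with the control reaction, normalised to the cognate motif.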

Binder | binding signal
B1 | 0.0144 KA relative to UGCAUGU
B2 | 0.0184 KA relative to UGCAUGU
B3 | 0.0129 KA relative to UGCAUGU
B4 | 0.032 KA relative to UGCAUGU
B5 | 0.0169 KA relative to UGCAUGU
B6 | 0.000413 KA relative to UGCAUGU
B7 | 0.0109 KA relative to UGCAUGU
B8 | 0.00195 KA relative to UGCAUGU
B9 | 0.0153 KA relative to UGCAUGU
B10 | 0.0163 KA relative to UGCAUGU
B11 | 0.00408 KA relative to UGCAUGU
B12 | 0.021 KA relative to UGCAUGU
B13 | 0.00138 KA relative to UGCAUGU
B14 | 0.00754 KA relative to UGCAUGU
B15 | 0.0174 KA relative to UGCAUGU
B16 | 0.013 KA relative to UGCAUGU
B17 | 0.000567 KA relative to UGCAUGU
B18 | 0.795 KA relative to UGCAUGU
B19 | 0.00841 KA relative to UGCAUGU
B20 | 0.00449 KA relative to UGCAUGU
